Laboratory results reported in PubChem BioAssay AID504832 (National Center for Advancing Translational Sciences (NCATS), 2011).
Out of some 310,000 compounds screened, about 18,000 (5.8%) were called active. Inconclusive means that the source gave no clear call. Such entries were picked first, then a sample of the others. The call rests on the fitted dose curve; in most records, active means well fitted inhibition curve with a large enough effect; inconclusive means small, poorly fitted or top-dose-only effect, or another doubt; inactive means no such curve, though single readings can be large or run the other way. No potency is given beside an inconclusive call; the fits are too rough.

assay: Primary qHTS for delayed death inhibitors of the malarial parasite plastid, 48 hour incubation; conditions: P. falciparum luciferase growth in erythrocytes; series mostly up to 28.7 µM
Method in brief: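 Luciferase-expressing parasites in RBCs, 2% Hct / 0.1% parasitemia final; RPMI 1640 + 0.5% Albumax; 37 C, 5% CO2, one generation; luminescence read-out, lower signal = inhibition.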
Potency means the concentration at half of the fitted maximal effect; tags describe the fitted curve by direction and shape.

Question: Which Potency does the source give for `CS(=O)(=O)N1CCN(c2ccccc2NC(=O)c2ccc3c(c2)OCCO3)CC1` here?
Answer: inconclusive [inhibitor, full curve, poor fit]

Question: With `CC(=O)C1=C(C)NC(=O)CC1c1ccc(F)cc1` (configuration not stated) as the compound, how does the Potency read?
Answer: inactive

Question: For `CC(=O)NCCNC(=O)c1cccc(NS(=O)(=O)c2ccc3c(c2)OCCO3)c1`, which Potency is on record?
Answer: inactive

Question: For `Cc1nnc(SCc2cc(=O)[nH]c(=S)[nH]2)s1`, which Potency is on record?
Answer: inactive

Question: Which Potency does the source give for `COc1cccc(/C=C/C(=O)OCC(=O)c2c[nH]c3ccccc23)c1OC` here?
Answer: inconclusive [inhibitor, partial curve, poor fit]

Question: Which Potency does the source give for `CCC(C)C(NC(=O)c1ccccc1NC(=O)c1ccc(OC)cc1)C(=O)NCCCn1ccnc1` (configuration not stated) here?
Answer: inconclusive [inhibitor, single point]

Question: Which Potency does the source give for `COc1ccc(-n2c(C)cc(/C=C3\C(=N)N4N=C(CC(=O)N5CCOCC5)SC4=NC3=O)c2C)cc1` here?
Answer: active: 13.1 µM

Question: With `CCOc1ccccc1NC(=O)C(OC(=O)C1CC1)c1ccccc1` (configuration not stated) as the compound, how does the Potency read?
Answer: inconclusive [inhibitor, partial curve, poor fit]

Question: With `Cc1cc(C)nc(NS(=O)(=O)c2ccc(NC(=O)c3cc(=O)c4ccccc4o3)cc2)n1` as the compound, how does the Potency read?
Answer: inactive

Question: Which Potency does the source give for `O=[N+]([O-])c1ccc(Cl)c(C2Nc3cccc4cccc(c34)N2)c1` here?
Answer: inconclusive [inhibitor, single point]

Question: For `CCCCCSc1cc(OC)c(CCN(C)C)cc1OC`, which Potency is on record?
Answer: inconclusive [inhibitor, partial curve]

Question: Which Potency does the source give for `CSCCC(NS(=O)(=O)c1ccc(C)cc1)C(=O)NC1CCCCCC1` (configuration not stated) here?
Answer: active: 9.28 µM

Question: With `COc1ccc(-c2nc(C)sc2CC(=O)O)cc1` as the compound, how does the Potency read?
Answer: inconclusive [inhibitor, partial curve, poor fit]

Question: With `COc1ccc(C(=O)[C@H]2[C@H]3C(=O)N(c4ccccc4)C(=O)[C@H]3C3C=CC=NN32)cc1` (some centres not stated) as the compound, how does the Potency read?
Answer: active: 16.5 µM

Question: Which Potency does the source give for `CCCCOc1ccc(CSc2n[nH]c(C)n2)cc1` here?
Answer: inconclusive [inhibitor, single point]

Question: For `CC(=O)O[C@@]1(C)C[C@@H](O)[C@]2(O)C=CO[C@@H](O[C@@H]3O[C@H](CO)[C@@H](O)[C@H](O)[C@H]3O)[C@@H]21`, which Potency is on record?
Answer: inactive

Question: For `CCc1ccc(CN(C)C(=O)c2cc(=O)c3ccccc3o2)cc1`, which Potency is on record?
Answer: inactive

Question: With `O=C(Nc1ncc(Cc2ccccc2Cl)s1)C1=NCCN1` as the compound, how does the Potency read?
Answer: inactive

Question: Which Potency does the source give for `CCN(CC(=O)Nc1c(F)cccc1F)C(=O)CCc1nc2cc(S(=O)(=O)N3CCOCC3)ccc2n1C` here?
Answer: inactive

Question: For `O=C(CN1CCCSc2ccccc21)N1CCN(S(=O)(=O)c2ccccc2)CC1`, which Potency is on record?
Answer: inactive

Question: With `COc1cccc(C2c3[nH]c4ccccc4c3C[C@H]3C(=O)N(CCCO)CC(=O)N23)c1OC` (some centres not stated) as the compound, how does the Potency read?
Answer: inconclusive [inhibitor, single point]

Question: With `CO[C@@H]1[C@@H](OC2OC(C)C(OC3CC(C)(O)C(OC(=O)CC(C)C)C(C)O3)C(N(C)C)C2O)[C@@H](CC=O)C[C@@H](C)C(=O)/C=C\C2O[C@H]2C[C@@H](C)OC(=O)C[C@H]1OC(C)=O` (some centres not stated) as the compound, how does the Potency read?
Answer: active: 6.75 µM

Question: With `O=C(NNC(=O)C12CC3CC(CC(C3)C1)C2)c1csc(N2CCOCC2)n1` as the compound, how does the Potency read?
Answer: inconclusive [inhibitor, single point]

Question: For `CCOc1ccccc1CNC(=O)C1CCN(C(=O)c2sccc2-n2cccc2)CC1`, which Potency is on record?
Answer: inconclusive [inhibitor, partial curve]

Question: For `O=C1CCCN1CCCNc1ncnc2c1[nH]c1ccc(Cl)cc12`, which Potency is on record?
Answer: inconclusive [inhibitor, single point]

Question: Which Potency does the source give for `C/C(=N\Nc1nc(-c2ccc(C)cc2C)cs1)c1cc2ccccc2oc1=O` here?
Answer: inactive

Question: Which Potency does the source give for `Cc1ccoc1C(=O)Nc1ccc(CC(=O)O)cc1` here?
Answer: inconclusive [inhibitor, partial curve]

Question: With `COc1ccc(C(C#N)(CC(=O)O)c2cnccn2)cc1OC` (configuration not stated) as the compound, how does the Potency read?
Answer: inconclusive [inhibitor, single point]

Question: For `COc1ccc(CCNC(=O)C2CC3Cn4c(nc5cc(C)c(C)cc54)C3N2C)cc1` (configuration not stated), which Potency is on record?
Answer: inconclusive [inhibitor, partial curve]

Question: With `CCOc1ccc(NC(=O)Nc2ccc3c(c2)N(C)C(=O)CS3)cc1` as the compound, how does the Potency read?
Answer: inconclusive [inhibitor, full curve, poor fit]

Question: Which Potency does the source give for `Cn1c(-c2ccsc2)c(-c2cccs2)c2cc(-c3cccc4[nH]ccc34)ccc21` here?
Answer: inconclusive [inhibitor, single point]

Question: For `Cc1ccc(NC(=S)c2nc3ccccc3[nH]2)c(C)c1`, which Potency is on record?
Answer: inactive

Question: Which Potency does the source give for `CCN(CC)c1cccc(OC(=O)c2cccnc2Cl)c1` here?
Answer: inactive

Question: For `O=C(N/N=C/c1ccco1)c1ccc(OCc2ccccc2)cc1`, which Potency is on record?
Answer: inconclusive [inhibitor, single point]

Question: With `CCN1CCN(CCNC(=O)c2ccc(/C=C3/Sc4ccccc4N(Cc4ccccc4C)C3=O)cc2)CC1` as the compound, how does the Potency read?
Answer: active: 11.7 µM

Question: Which Potency does the source give for `Cc1ccc(C)c(N(CC(=O)NN=C2CCN(C)CC2)S(=O)(=O)c2ccccc2)c1` here?
Answer: inconclusive [inhibitor, partial curve, poor fit]

Question: Which Potency does the source give for `CCn1nc(C(=O)Nc2ccccc2N2CCCC2)c2ccccc2c1=O` here?
Answer: inconclusive [inhibitor, single point]

Question: With `Cc1cc(Cl)nc(Cl)c1C(=O)NC(=O)NCCC(C)C` as the compound, how does the Potency read?
Answer: inactive

Question: For `COc1ccccc1CNC(=S)NCc1ccc(F)cc1`, which Potency is on record?
Answer: inconclusive [inhibitor, partial curve, poor fit]

Question: For `COc1cccc(/C=N/NC(=O)c2ccccc2)c1OS(=O)(=O)c1ccccc1`, which Potency is on record?
Answer: inconclusive [inhibitor, partial curve, poor fit]

Question: For `COc1ccc(NC(=S)N2CCC(c3nc4ccccc4o3)CC2)c(OC)c1`, which Potency is on record?
Answer: inactive

Question: With `Cc1cc2cc(CNC(=O)NC3CCCCC3)ccc2n1C` as the compound, how does the Potency read?
Answer: inconclusive [inhibitor, single point]

Question: With `CCc1nnc(NC(=S)Nc2ccccc2)s1` as the compound, how does the Potency read?
Answer: inactive

Question: Which Potency does the source give for `Fc1ccc(C(CNC(=S)NC2CCCCC2)N2CCOCC2)cc1` (configuration not stated) here?
Answer: inconclusive [inhibitor, partial curve]

Question: For `CCC1=C(OC(=O)N(CC)CC)N2C(=O)OC(=NCC3CC3)[C@]2(C)[C@H]2C1=CC[C@H]1C(=O)NC(=O)[C@H]12`, which Potency is on record?
Answer: inconclusive [inhibitor, single point]

Question: With `Cc1cccc(C(=O)N2CCC(=O)N(C(COCc3cccc(C(F)(F)F)c3)Cc3ccccc3)CC2)c1` (configuration not stated) as the compound, how does the Potency read?
Answer: inconclusive [inhibitor, partial curve]

Question: Which Potency does the source give for `CN1C[C@H](C(=O)N[C@]2(C)O[C@@]3(O)[C@@H]4CCCN4C(=O)[C@H](Cc4ccccc4)N3C2=O)C=C2c3cccc4[nH]cc(c34)C[C@H]21` here?
Answer: active: 0.301 µM

Question: Which Potency does the source give for `CCNc1sc(C(=O)c2cccs2)c(N)c1-c1nc2ccccc2s1` here?
Answer: inconclusive [inhibitor, single point]

Question: With `O=C(Cc1ccc(F)cc1)Nc1cccc(S(=O)(=O)N2CCCC2)c1` as the compound, how does the Potency read?
Answer: inconclusive [inhibitor, single point]

Question: With `Cc1c(Cc2ccccc2)c(=O)oc2c(C)c(OCC(=O)NCC3CCC(C(=O)O)CC3)ccc12` (configuration not stated) as the compound, how does the Potency read?
Answer: inconclusive [inhibitor, single point]

Question: With `COc1cccc(-c2nnc(-c3ccc(C(F)(F)F)cc3)o2)c1` as the compound, how does the Potency read?
Answer: inactive

Question: Which Potency does the source give for `Cc1cc(OCC(=O)OC(C)C)c2c3c(c(=O)oc2c1)CCCC3` here?
Answer: inconclusive [inhibitor, partial curve, poor fit]

Question: For `CCOC(=O)N1CCC(Nc2c(Nc3ccc(F)cc3)c(=O)c2=O)CC1`, which Potency is on record?
Answer: active: 10.4 µM

Question: For `CCCN(CCC)S(=O)(=O)c1ccc(C(=O)Nc2nc3c(s2)CCc2ccccc2-3)cc1`, which Potency is on record?
Answer: inactive

Question: For `COc1cc(OC)c2ccc(=O)oc2c1C(CC(=O)N1CCCC1)c1ccc2c(c1)OCO2` (configuration not stated), which Potency is on record?
Answer: active: 9.28 µM

Question: Which Potency does the source give for `Cc1cccc(/N=C/c2nc(-c3ccccc3Br)oc2O)n1` here?
Answer: inconclusive [inhibitor, single point]

Question: Which Potency does the source give for `COc1ccc(S(=O)(=O)N2CCC(C(=O)NC(c3nc4ccccc4[nH]3)C(C)C)CC2)cc1` (configuration not stated) here?
Answer: active: 10.4 µM

Question: With `O=C(N/N=C/c1cc([N+](=O)[O-])ccc1O)c1ccc(COc2ccc3c(c2)CCC3)o1` as the compound, how does the Potency read?
Answer: inconclusive [inhibitor, single point]

Question: For `CCCCCn1c(=O)c(C(=O)NCc2ccc(Cl)cc2)c(O)c2ccccc21`, which Potency is on record?
Answer: inconclusive [inhibitor, partial curve, poor fit]

Question: Which Potency does the source give for `COc1cc(OC)cc(C(=O)NCc2n[nH]c(=S)n2-c2ccccc2)c1` here?
Answer: inconclusive [inhibitor, partial curve]

Question: With `O=C1c2ccccc2C(=O)c2c(Nc3ccc(CCO)cc3)ccc(O)c21` as the compound, how does the Potency read?
Answer: inconclusive [inhibitor, partial curve]

Question: Which Potency does the source give for `CCn1c(NCc2cccs2)nc2ccccc21` here?
Answer: inactive

Question: Which Potency does the source give for `CC(=O)c1cccc(NC(=O)CSCc2ccccc2)c1` here?
Answer: inactive

Question: With `Cc1cc(Nc2ccc(F)c(Cl)c2)n2ncnc2n1` as the compound, how does the Potency read?
Answer: inconclusive [inhibitor, partial curve]

Question: With `CC(=O)Nc1ccc(S(=O)(=O)N(C)CC(=O)OC(C)C(=O)N(C)Cc2ccccc2)cc1` (configuration not stated) as the compound, how does the Potency read?
Answer: inconclusive [inhibitor, partial curve, poor fit]

Question: For `CC(=O)C(C)Oc1ccc2c3c(c(=O)oc2c1)CCCC3` (configuration not stated), which Potency is on record?
Answer: inactive

Question: For `COc1ccccc1N1CCN(C(=O)C(=O)c2cn(CC(=O)N3CCCC3)c3ccccc23)CC1`, which Potency is on record?
Answer: inconclusive [inhibitor, partial curve]
